Measurements as given in the supplement of paper PMC12578646, “Prodrug florfenicol amine is activated by intrinsic resistance to target Mycobacterium abscessus” (Nature Microbiology, 2025).

Key:
Assay in all cases: growth relative to untreated wells; higher = more growth (less inhibition)
[1] = system: Mycobacterium abscessus ATCC 19977 Eis2 E120fs
Protocol: (§1)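 384-well two-fold dose series, two replicates; 5 days at 37 °C, then 24 h with resazurin; fluorescence scaled to growth and killed controls.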

[2] = system: Mycobacterium abscessus ATCC 19977 Eis2 T258R
Protocol: as §1

[3] = system: Mycobacterium abscessus ATCC 19977 Eis2 Y227D
Protocol: as §1

[4] = system: Mycobacterium abscessus ATCC 19977 Eis2 Y255*
Protocol: as §1

[5] = system: Mycobacterium abscessus ATCC 19977 Eis2 Y284*
Protocol: as §1

[6] = system: Mycobacterium abscessus ATCC 19977 WhiB7 F24fs
Protocol: as §1

[7] = system: Mycobacterium abscessus ATCC 19977 WhiB7 L37P
Protocol: as §1

[8] = system: Mycobacterium abscessus ATCC 19977 WhiB7 R76del
Protocol: as §1

[9] = system: Mycobacterium abscessus ATCC 19977 WhiB7 T70fs
Protocol: as §1

[10] = system: Mycobacterium abscessus ATCC 19977 Δeis2
Protocol: as §1

[11] = system: Mycobacterium abscessus ATCC 19977 ΔwhiB7
Protocol: as §1

[12] = system: Mycobacterium abscessus ATCC 19977
Protocol: as §1

CC[C@H]1OC(=O)[C@H](C)[C@@H](O[C@H]2C[C@@](C)(OC)[C@@H](O)[C@H](C)O2)[C@H](C)[C@@H](O[C@@H]2O[C@H](C)C[C@H](N(C)C)[C@H]2O)[C@](C)(OC)C[C@@H](C)C(=O)[C@H](C)[C@@H](O)[C@]1(C)O [clarithromycin]
growth ([1]; 0.03125 µg/mL): 131 ± 8.5%
growth ([1]; 0.0625 µg/mL): 109 ± 22%
growth ([1]; 0.125 µg/mL): 35.3 ± 9.2%
growth ([1]; 0.25 µg/mL): 5.66 ± 5.3%
growth ([1]; 0.5 µg/mL): 0.146 ± 0.68%
growth ([1]; 1 µg/mL): -2.24 ± 1%
growth ([1]; 2 µg/mL): -3.04 ± 0.41%
growth ([1]; 4 µg/mL): -3.21 ± 0.2%
growth ([1]; 8 µg/mL): -3.137 ± 0.03%
growth ([1]; 16 µg/mL): -3.13 ± 0.33%
growth ([1]; 32 µg/mL): -2.4 ± 0.27%
growth ([1]; 64 µg/mL): -1.31 ± 0.093%
growth ([2]; 0.03125 µg/mL): 120 ± 12%
growth ([2]; 0.0625 µg/mL): 62.2 ± 13%
growth ([2]; 0.125 µg/mL): 12.9 ± 1.3%
growth ([2]; 0.25 µg/mL): 0.586 ± 0.23%
growth ([2]; 0.5 µg/mL): -1.29 ± 0.1%
growth ([2]; 1 µg/mL): -3.07 ± 0.62%
growth ([2]; 2 µg/mL): -3.63 ± 0.23%
growth ([2]; 4 µg/mL): -3.35 ± 0.19%
growth ([2]; 8 µg/mL): -3 ± 0.68%
growth ([2]; 16 µg/mL): -3.35 ± 0.33%
growth ([2]; 32 µg/mL): -3.35 ± 0.39%
growth ([2]; 64 µg/mL): -1.95 ± 0.089%
growth ([3]; 0.03125 µg/mL): 124.8 ± 0.3%
growth ([3]; 0.0625 µg/mL): 83.7 ± 10%
growth ([3]; 0.125 µg/mL): 24.7 ± 0.54%
growth ([3]; 0.25 µg/mL): 3.27 ± 0.69%
growth ([3]; 0.5 µg/mL): 0.757 ± 0.02%
growth ([3]; 1 µg/mL): -1.64 ± 1.3%
growth ([3]; 2 µg/mL): -1.07 ± 0.017%
growth ([3]; 4 µg/mL): -2 ± 0.33%
growth ([3]; 8 µg/mL): -1.73 ± 0.84%
growth ([3]; 16 µg/mL): -1.37 ± 0.26%
growth ([3]; 32 µg/mL): -1.46 ± 0.17%
growth ([3]; 64 µg/mL): -0.122 ± 0.028%
growth ([4]; 0.03125 µg/mL): 129 ± 3.9%
growth ([4]; 0.0625 µg/mL): 82.5 ± 6.1%
growth ([4]; 0.125 µg/mL): 18 ± 3.6%
growth ([4]; 0.25 µg/mL): 1.78 ± 2.4%
growth ([4]; 0.5 µg/mL): -0.0444 ± 0.98%
growth ([4]; 1 µg/mL): -3.83 ± 3.4%
growth ([4]; 2 µg/mL): -4.34 ± 2.7%
growth ([4]; 4 µg/mL): -4.43 ± 2.1%
growth ([4]; 8 µg/mL): -4.46 ± 3.2%
growth ([4]; 16 µg/mL): -4.42 ± 2.3%
growth ([4]; 32 µg/mL): -4.07 ± 2.5%
growth ([4]; 64 µg/mL): -2.93 ± 2.4%
growth ([5]; 0.03125 µg/mL): 123 ± 4.1%
growth ([5]; 0.0625 µg/mL): 88.087 ± 0.08%
growth ([5]; 0.125 µg/mL): 22.9 ± 5.4%
growth ([5]; 0.25 µg/mL): 3.31 ± 1.3%
growth ([5]; 0.5 µg/mL): -1.361 ± 0.01%
growth ([5]; 1 µg/mL): -2.83 ± 0.091%
growth ([5]; 2 µg/mL): -2.67 ± 0.22%
growth ([5]; 4 µg/mL): -0.5 ± 3.4%
growth ([5]; 8 µg/mL): -2.84 ± 0.41%
growth ([5]; 16 µg/mL): -2.81 ± 0.24%
growth ([5]; 32 µg/mL): -2.61 ± 0.31%
growth ([5]; 64 µg/mL): -1.64 ± 0.14%
growth ([6]; 0.03125 µg/mL): 122 ± 7.5%
growth ([6]; 0.0625 µg/mL): 33.8 ± 12%
growth ([6]; 0.125 µg/mL): 1.08 ± 0.29%
growth ([6]; 0.25 µg/mL): -1.8 ± 0.13%
growth ([6]; 0.5 µg/mL): -1.95 ± 0.37%
growth ([6]; 1 µg/mL): -3.26 ± 0.14%
growth ([6]; 2 µg/mL): -3.03 ± 0.15%
growth ([6]; 4 µg/mL): -3.09 ± 1.1%
growth ([6]; 8 µg/mL): -2.36 ± 1.1%
growth ([6]; 16 µg/mL): -2.55 ± 0.89%
growth ([6]; 32 µg/mL): -2.49 ± 0.67%
growth ([6]; 64 µg/mL): -1.19 ± 0.27%
growth ([7]; 0.03125 µg/mL): 121 ± 9.8%
growth ([7]; 0.0625 µg/mL): 52 ± 20%
growth ([7]; 0.125 µg/mL): 1.8 ± 0.95%
growth ([7]; 0.25 µg/mL): -1.57 ± 0.27%
growth ([7]; 0.5 µg/mL): -1.79 ± 0.26%
growth ([7]; 1 µg/mL): -2.63 ± 0.16%
growth ([7]; 2 µg/mL): -2.81 ± 0.87%
growth ([7]; 4 µg/mL): -3.54 ± 0.27%
growth ([7]; 8 µg/mL): -3.028 ± 0.015%
growth ([7]; 16 µg/mL): -2.62 ± 0.072%
growth ([7]; 32 µg/mL): -2.65 ± 0.46%
growth ([7]; 64 µg/mL): -1.194 ± 0.0097%
growth ([8]; 0.03125 µg/mL): 122 ± 6.1%
growth ([8]; 0.0625 µg/mL): 45.1 ± 6.1%
growth ([8]; 0.125 µg/mL): 3.11 ± 4.6%
growth ([8]; 0.25 µg/mL): -1.96 ± 1.3%
growth ([8]; 0.5 µg/mL): -1.89 ± 0.35%
growth ([8]; 1 µg/mL): -3.24 ± 0.54%
growth ([8]; 2 µg/mL): -3.05 ± 0.13%
growth ([8]; 4 µg/mL): -2.81 ± 0.45%
growth ([8]; 8 µg/mL): -2.83 ± 0.2%
growth ([8]; 16 µg/mL): -2.78 ± 0.37%
growth ([8]; 32 µg/mL): -2.6 ± 0.41%
growth ([8]; 64 µg/mL): -1.21 ± 0.36%
growth ([9]; 0.03125 µg/mL): 120 ± 6.7%
growth ([9]; 0.0625 µg/mL): 17.5 ± 1.8%
growth ([9]; 0.125 µg/mL): -0.673 ± 2.3%
growth ([9]; 0.25 µg/mL): -4.48 ± 0.33%
growth ([9]; 0.5 µg/mL): -4.11 ± 1.2%
growth ([9]; 1 µg/mL): -4.61 ± 1.2%
growth ([9]; 2 µg/mL): -4.73 ± 0.75%
growth ([9]; 4 µg/mL): -5.56 ± 1%
growth ([9]; 8 µg/mL): -5.12 ± 1%
growth ([9]; 16 µg/mL): -4.82 ± 1.2%
growth ([9]; 32 µg/mL): -4.49 ± 1.5%
growth ([9]; 64 µg/mL): -3.04 ± 0.88%
growth ([10]; 0.03125 µg/mL): 121 ± 4%
growth ([10]; 0.0625 µg/mL): 56.1 ± 12%
growth ([10]; 0.125 µg/mL): 18.3 ± 22%
growth ([10]; 0.25 µg/mL): -1.54 ± 0.45%
growth ([10]; 0.5 µg/mL): -2.92 ± 0.77%
growth ([10]; 1 µg/mL): -4.1 ± 0.8%
growth ([10]; 2 µg/mL): -3.67 ± 0.61%
growth ([10]; 4 µg/mL): -4.11 ± 0.29%
growth ([10]; 8 µg/mL): -3.79 ± 0.53%
growth ([10]; 16 µg/mL): -4.02 ± 0.5%
growth ([10]; 32 µg/mL): -3.42 ± 0.42%
growth ([10]; 64 µg/mL): -1.98 ± 0.24%
growth ([11]; 0.03125 µg/mL): 120 ± 4.1%
growth ([11]; 0.0625 µg/mL): 53.1 ± 5.8%
growth ([11]; 0.125 µg/mL): 8.72 ± 4.8%
growth ([11]; 0.25 µg/mL): -4.09 ± 4%
growth ([11]; 0.5 µg/mL): -4.36 ± 3.8%
growth ([11]; 1 µg/mL): -6.12 ± 3.4%
growth ([11]; 2 µg/mL): -6.09 ± 3.5%
growth ([11]; 4 µg/mL): -5.37 ± 4.5%
growth ([11]; 8 µg/mL): -5.43 ± 4.2%
growth ([11]; 16 µg/mL): -5.22 ± 4.5%
growth ([11]; 32 µg/mL): -4.99 ± 4.3%
growth ([11]; 64 µg/mL): -3.84 ± 4.1%
growth ([12]; 0.03125 µg/mL): 122.13 ± 0.028%
growth ([12]; 0.0625 µg/mL): 51.3 ± 34%
growth ([12]; 0.125 µg/mL): 6.5 ± 1.5%
growth ([12]; 0.25 µg/mL): 1.69 ± 2.6%
growth ([12]; 0.5 µg/mL): -1.53 ± 0.5%
growth ([12]; 1 µg/mL): -2.39 ± 0.66%
growth ([12]; 2 µg/mL): -2.94 ± 0.33%
growth ([12]; 4 µg/mL): -2.55 ± 0.71%
growth ([12]; 8 µg/mL): -2.7 ± 0.16%
growth ([12]; 16 µg/mL): -2.64 ± 0.47%
growth ([12]; 32 µg/mL): -2.94 ± 0.69%
growth ([12]; 64 µg/mL): -1.14 ± 0.88%

± gives the standard deviation of the averaged measurements. M. abscessus ATCC 19977 and its deletion, point and complemented mutants after 5 days of drug at 37 °C plus 24 h of resazurin. Growth in % of untreated wells at the dose given (lower = more inhibition); checkerboards give % inhibition (higher = more inhibition); IC50 from the fitted curve (lower = more potent). No active / inactive call. IC50 values come from the same 384-well curves. Growth is not capped and can exceed 100%. The direction of the checkerboard scale is read from the raw signals. Capreomycin is a mixture.
